In PubChem BioAssay AID894 (National Center for Advancing Translational Sciences (NCATS), 2007):
The whole screen tested about 150,000 compounds, of which about 6,500 (4.3%) were called active. The inconclusive results got no clear call from the source; some entries with a clear call stand among them for comparison. Calls come from the whole dose curve; as a rule, active = well fitted inhibition curve with a large enough effect (not every such curve was filed as active); inconclusive = small, poorly fitted or top-dose-only effect, or another doubt; inactive = no such curve, though single readings can be large or run the other way. A potency beside an inconclusive call is a rough fit, not a confirmed value.

Each molecule was assayed against 15-hydroxyprostaglandin dehydrogenase [NAD(+)] (Homo sapiens) (UniProt P15428) (assay: qHTS Assay for Inhibitors of HPGD (15-Hydroxyprostaglandin Dehydrogenase)). Details: purified HPGD, NADH fluorescence kinetic, PGE2 substrate; activity change, negative = inhibition: active compounds read low.
Outline: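 20 nM HPGD preincubated 15 min at room temperature with compound in 50 mM Tris-HCl pH 8, 0.01% Tween 20. Started with 1 mM NAD+ and 30 uM prostaglandin E2; NADH fluorescence (360/450 nm) read 5 times over 30-s intervals, last minus first.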
% is set by controls: 0 for no effect and ±100 for the full control effect; potency is the fitted concentration of half-maximal effect; tags give direction and shape of the fitted curve.

UniProt P15428, sequence (P15428 whole entry, looked up): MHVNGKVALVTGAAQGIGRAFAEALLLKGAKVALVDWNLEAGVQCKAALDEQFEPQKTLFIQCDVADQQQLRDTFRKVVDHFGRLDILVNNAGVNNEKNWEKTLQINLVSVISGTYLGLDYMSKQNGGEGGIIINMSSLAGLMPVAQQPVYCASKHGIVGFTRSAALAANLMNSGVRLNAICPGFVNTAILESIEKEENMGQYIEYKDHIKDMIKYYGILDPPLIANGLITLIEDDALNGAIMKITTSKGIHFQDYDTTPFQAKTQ

Potency, inconclusive:
Cc1ccc(C)c(S(=O)(=O)Nc2ccccc2C(=O)Nc2ccc(S(=O)(=O)Nc3ncccn3)cc2)c1 31.6 µM [inhibitor, partial curve], CN(C)c1ccc(/C=C/C(=O)c2ccc(C(C)(C)C)cc2)cc1[N+](=O)[O-] 14.1 µM [inhibitor, partial curve], CCOC(=O)N1CCC(N2C(=O)c3ccccc3C2Nc2cc(C(=O)OC)cc(C(=O)OC)c2)CC1 (stereo not drawn) 25.1 µM [inhibitor, partial curve], CCCn1c(-c2ccc(F)cc2)nc2c(NCCCN3CCOCC3)nc(C)nc21 28.2 µM [inhibitor, partial curve], Cc1ccc(C(=O)/C=C/Nc2ccccc2C(N)=O)o1 20 µM [inhibitor, partial curve], CC(C)c1cc(C(=O)NNC(=S)NCc2ccco2)c(O)c(C(C)C)c1 22.4 µM [inhibitor, partial curve, poor fit], Cc1c(C(=O)OCC(=O)NCCN2C(=O)CSC2=O)oc2c1ccc1ccccc12 11.2 µM [inhibitor, partial curve], Cc1cc(=O)oc2cc(OCC(=O)OCc3nnc(-c4ccccc4)o3)ccc12 28.2 µM [inhibitor, partial curve], O=C(CCSCCc1ccccn1)Nc1ccc(Br)cc1F 25.1 µM [inhibitor, partial curve, poor fit], COc1cc(NC(=O)c2cc(Cl)ccc2Cl)ccc1-c1cc2ccccc2oc1=O 25.1 µM [inhibitor, partial curve, poor fit], CCn1c(CC(=O)Nc2ccc(C)cc2)nnc1SCC(=O)NCCc1ccccc1 3.98 µM [inhibitor, single point], Cc1ccc(-c2nc3sc(C(N)=O)c(N)c3c3c2CCCC3)cc1 14.1 µM [inhibitor, partial curve], CCc1c(C)nc2ncnn2c1N1CCCC(C(=O)Nc2ccc(NC(C)=O)cc2)C1 (stereo not drawn) 22.4 µM [inhibitor, single point], COc1ccc(OC)c(NC(=O)c2ccc(-n3cccn3)nc2)c1 31.6 µM [inhibitor, single point], CCNc1ncc2nc(-c3ccc(F)cc3)c(=O)n(CCC#N)c2n1 0.631 µM [inhibitor, full curve], CC(=O)Nc1nc2ccc(-c3nc4ccccc4o3)cc2s1 11.2 µM [inhibitor, partial curve], CCn1cc(C(=O)NCc2ccco2)c(=O)c2cc(F)c(N3CCN(C(=O)c4ccco4)CC3)cc21 20 µM [inhibitor, partial curve], Cc1ccccc1-n1c(C)cc(/C=C2\NC(=O)NC2=O)c1C 28.2 µM [inhibitor, partial curve], Cc1c(NC(=O)C(C)OC(=O)c2cc3c4ccccc4n(C)c3s2)c(=O)n(-c2ccccc2)n1C (stereo not drawn) 31.6 µM [inhibitor, partial curve], COC(=O)c1ccc(COC(=O)c2ccc(CO)cc2)o1 17.8 µM [inhibitor, partial curve], O=C(COC(=O)CCCNC(=O)c1ccc(Cl)cc1)NCc1ccccc1Cl 31.6 µM [inhibitor, single point], CCOC(=O)CSc1ccc2nnc(-c3ccccc3)n2n1 20 µM [inhibitor, single point], COc1ccc2[nH]c(=O)c(CN(Cc3ccco3)C(c3nnnn3Cc3ccccc3)C(C)C)cc2c1 (stereo not drawn) 28.2 µM [inhibitor, single point], O=C(O)CSCc1cnn(-c2ccccc2)c1-n1cccc1 10 µM [inhibitor, partial curve], COCCn1c(SCCN2CCOCC2)nc2c1c(=O)[nH]c(=O)n2C 25.1 µM [inhibitor, single point], COc1ccc2c(c1)c1ncn(CCCN3CCOCC3)c(=O)c1n2C 28.2 µM [inhibitor, partial curve], Cc1ccccc1Nc1cc2ccccc2c(=O)[nH]1 28.2 µM [inhibitor, partial curve], CN(C)Cc1c(O)c(Cl)cc2c3c(c(=O)oc12)CCCC3 14.1 µM [inhibitor, partial curve], Cc1ccc(-c2[nH]c(-c3ccc(Cl)cc3)nc2SCC(=O)NCC2CCCO2)cc1 (stereo not drawn) 11.2 µM [inhibitor, partial curve], Oc1ccc(-c2cn3cc(C(F)(F)F)ccc3n2)cc1 20 µM [inhibitor, single point], CCn1c2ccc(C)cc2c2nc3cc(C(=O)O)ccc3nc21 39.8 µM [inhibitor, partial curve], O=C(c1ccc(-c2nnc(Nc3cccc(Cl)c3)c3ccccc23)cc1)N1C[C@H]2C[C@H](C1)c1cccc(=O)n1C2 22.4 µM [inhibitor, single point], COc1cc2cc(C(c3nnnn3C(C)(C)C)N3CCc4ccccc4C3)c(=O)[nH]c2cc1OC (stereo not drawn) 25.1 µM [inhibitor, partial curve], COc1ccccc1/C=N/n1cnnc1 31.6 µM [inhibitor, single point], N#Cc1c(C(F)(F)F)cc(C2CC2)nc1N1CCCC1 28.2 µM [inhibitor, partial curve], CCCOC(=O)c1c(NC(=O)CSc2nc(-c3ccco3)cc(C(F)(F)F)n2)sc(C(=O)OC)c1C 31.6 µM [inhibitor, single point]

Potency, active:
CC1CN=C(N(C(=O)Nc2ccccc2)c2ccc(S(=O)(=O)N3CCOCC3)cc2)S1 (stereo not drawn) 20 µM, CCCc1nnc(NC(=O)CN2C(=O)c3ccccc3S2(=O)=O)s1 14.1 µM, CC(=O)Nc1ccc(S(=O)(=O)Oc2ccc(C(=S)N3CCCCC3)cc2)cc1 15.8 µM, O=C(NCCO)c1ccc(CSc2nc3ccccc3[nH]2)cc1 25.1 µM, Cc1c(CN(C)C(=O)c2sc3cc(Cl)ccc3c2Cl)cnn1C 20 µM, COc1cccc(-n2nnc3c(=O)n(Cc4ccc(F)cc4)cnc32)c1 28.2 µM, Cc1ccc(Cn2nnc3c(=O)n(Cc4cccc(C)c4)cnc32)cc1 5.01 µM, O=C(c1ccccc1Cl)N1CCCC(c2nc3c(nnn3Cc3ccccc3)c(=O)[nH]2)C1 (stereo not drawn) 15.8 µM, CO[C@H]1C=CO[C@@]2(C)Oc3c(C)c(O)c4c(O)c(c(C=NN5CCN(C)CC5)c(O)c4c3C2=O)NC(=O)C(C)=CC=C[C@H](C)[C@H](O)[C@@H](C)[C@@H](O)[C@@H](C)[C@H](OC(C)=O)[C@@H]1C 25.1 µM, COC1=CC(=O)C(O)=C/C1=C\C=C\c1ccccc1 11.2 µM, CC(=O)c1sc(NC(=O)c2ccco2)nc1-c1ccccc1 11.2 µM, O=C(NCC1CCCO1)c1ccccc1 (stereo not drawn) 20 µM, COc1ccc(Oc2ncnc3c2ncn3Cc2ccccc2)cc1 8.91 µM

Activity change, negative = inhibition, inactive:
CCOC(=O)N1CC=C2C(C#N)=C(N)C(C#N)(C#N)[C@H](c3ccccc3OCC)[C@H]2C1 -6.23%, CC(=O)Nc1ccc(S(=O)(=O)N(Cc2ccco2)CC2CCCO2)cc1 (stereo not drawn) -23.6%, CC(=O)C1=C(O)C(=O)N(c2nccs2)C1c1ccccc1 (stereo not drawn) -7.96%, Cc1ccc(CCN2C(=O)CCC2(C)C(=O)NCc2cccnc2)cc1 (stereo not drawn) -5.42%, COc1cc(CC(=O)Nc2ccc(Cl)c(C(F)(F)F)c2)cc(OC)c1OC -13.8%, CCC1=Nc2cc(C(=O)NCc3ccco3)ccc2Sc2ccc(Cl)cc21 -27.3%, c1ccc(CNCc2ccc3c(c2)OCO3)nc1 -2.71%, CCOc1cc(C)c(S(=O)(=O)NC2CCCCC2)cc1C -11.4%, O=C(CCSCc1ccc(Cl)cc1)NCCC1=CCCCC1 -29.8%, CC(C)C[C@@H](CC(=O)N[C@H](CC(=O)N[C@@H]1CCNC[C@H]1C(=O)N[C@H](CC(=O)N[C@@H](CCC(=O)O)CC(=O)O)Cc1c[nH]c2ccccc12)C(C)C)NC(=O)[C@@H]1CCCC[C@H]1N -2.22%, COC(=O)c1cc(N=CC2=C(O)CC(C)(C)CC2=O)cc(C(=O)OC)c1 -13.3%, Cc1cc(C)c2nc(N3CCC(C(=O)N4CCN(c5ncccn5)CC4)CC3)sc2c1 -9.01%, CCCn1c(C)nc2c(NCCN3CCOCC3)nc(C)nc21 -10.7%, O=C(NC(=S)Nc1cccc([N+](=O)[O-])c1)c1ccco1 -3.3%, CO/N=C(/C(=O)N[C@@H]1C(=O)N2C(C(=O)O)=C(COC(N)=O)CS[C@H]12)c1ccco1 -2%, CCSc1nnc(NC(=O)c2csc3c2CCC(C)C3)s1 (stereo not drawn) -7.16%, Cc1[nH]nc(SCC(=O)NCc2ccc(Cl)cc2)c1[N+](=O)[O-] -8.44%, O=C(CN1CCN(c2ccccc2)CC1)Nc1nnc(-c2ccccc2)s1 -7.7%, Cc1ccc(SCC(=O)Nc2cccc(NC(=O)c3ccco3)c2)cc1 -3.6%
